From PubChem BioAssay AID463173 (ICCB-Longwood Screening Facility, Harvard Medical School, 2010)
The campaign covered roughly 52,000 compounds. About 4,300 (8.3%) were called active. Rule as the data show it: active = survival mostly below about 52% (no sharp cut-off); inactive = mostly above about 56%. Some of the results follow.

Each compound was assayed on DeltatarO mutant (assay: S. aureus survival, RN4220 and DeltatarO strains – OD600, teichoic acid synthesis inhibitors, primary screen (AID 463173)). Conditions: S. aureus RN4220 wild type/DeltatarO growth, OD600, 18 h, stronger effect = lower value, screened at 18.75 µg/mL (by protocol).

Row | SMILES | survival
1 | O=C(Nc1ccccc1Cl)NC1(C(=O)N2CCCCC2)CCCCC1 | inactive: 84%
2 | CCOc1ccc(-c2cc(CCCC(=O)NCCc3ccc(Cl)cc3)no2)cc1 | inactive: 74%
3 | O=C(NCCc1csc(-c2ccc(C(F)(F)F)cc2)n1)c1ccc(F)c(F)c1 | inactive: 82%
4 | Cc1cccc(NC(=O)CSc2nc(-c3cccs3)cc(C(F)(F)F)c2C#N)c1C | inactive: 68%
5 | COC(=O)c1c(-c2cccs2)csc1NC(=O)c1cccc(Cl)c1 | inactive: 93%
6 | COC(=O)c1c(-c2cccs2)csc1NC(=O)c1ccc(Br)cc1 | inactive: 51%
7 | CC(O)CNCc1ccc2c(c1)OCO2 (stereo not given) | inactive: 101%
8 | CCN(c1cccc(C)c1)S(=O)(=O)c1ccc(-n2cccn2)cc1 | inactive: 73%
9 | CCc1ccc(NC(=O)CCS(=O)(=O)c2cc3c(cc2Cl)NC(=O)CO3)cc1 | inactive: 91%
10 | CC1=C(C(=O)Nc2ccccc2)C(c2ccccc2C)n2nc(SCC(=O)c3ccc(C)cc3)nc2N1 (stereo not given) | inactive: 74%
11 | CCCCC(c1nnnn1CCc1ccccc1)N1CCN(C2CCCC2)CC1 (stereo not given) | inactive: 87%
12 | COCCCNc1nc2c(S(=O)(=O)c3ccccc3)nnn2c2ccc(Cl)cc12 | inactive: 95%
13 | O=C(NCc1cccs1)c1nn(-c2ccccc2Cl)nc1CO | inactive: 105%
14 | Cc1[nH]n(-c2ccccc2)c(=O)c1C(c1cc(Cl)ccc1O)c1c(C)[nH]n(-c2ccccc2)c1=O | inactive: 49%
15 | CCOC(=O)c1ccccc1NC(=O)N1CCN(Cc2cc(=O)n3nc(-c4ccccc4)sc3n2)CC1 | inactive: 70%
16 | N#Cc1ccc(S(=O)(=O)N2CCC(Oc3cccc(C(F)(F)F)c3)CC2)cc1 | inactive: 67%
17 | COc1ccc(CNC(=O)C(=O)Nc2c3c(nn2-c2ccccc2)CSC3)cc1 | inactive: 86%
18 | COc1cc(OC)c(OC)cc1CN1CCc2nc(Nc3ccc4c(c3)OCCO4)ncc2C1 | inactive: 80%
19 | CCCNC(=O)C1=CC(c2ccc3c(c2)OCO3)=NS(=O)(=O)N1C | inactive: 83%
20 | CCN(c1ccccc1)S(=O)(=O)c1cc(Br)cc2c1N(C(=O)C1CC1)CC2 | inactive: 60%
21 | Cc1ccc(-c2cc(C(=O)NCc3cnn(C)c3C)c3ccccc3n2)cc1C | active: 49%
22 | Cc1ccc(C(=O)N2CCc3cc(CNC(=O)CSc4ccccc4)ccc32)cc1 | inactive: 81%
23 | Cc1cccc(N(C(=O)c2csnn2)C(C(=O)NC2CCCCC2)c2ccco2)c1 (stereo not given) | inactive: 87%
24 | Cc1cccc(-c2c3c(=O)n(C)c(=O)n(C)c3c3c(C)nc4ccccc4n23)c1 | inactive: 129%
25 | CCc1ccc(NC(=O)c2cccc(N3CCCS3(=O)=O)c2)cc1 | inactive: 81%
